According to the supplement of paper PMC9446081:
Out of some 39,000 compounds screened, about 220 (0.56%) showed activity. This is one part of the list.

What follows are compounds tested on Escherichia coli K-12 BW25113 (assay: relative growth (OD600 normalised to plate interquartile mean) (fraction); higher = less growth inhibition, active = 0.2 or less). Conditions: 50 µM; LB; incubation time: overnight (16-24 h).
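Also: static incubation at 37 °C against the wild-type strain, values averaged over two biological replicates.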

| SMILES | relative growth |
| --- | --- |
| C[C@@H]1CN([C@@H](C)CO)C(=O)c2cc(NS(=O)(=O)c3ccc(F)cc3)ccc2O[C@@H](C)CCCCO[C@H]1CN(C)Cc1ccc(C(=O)O)cc1 | inactive: 0.984 |
| COC(=O)[C@H](Cc1ccccc1)N1CC2=CCCC=C[C@H]2[C@@H]1[C@@H](O)CCn1cc(-c2ccc(C(=O)NO)cc2)nn1 | inactive: 0.98 |
| C[C@@H]1CN([C@@H](C)CO)C(=O)c2cc(N(C)C)ccc2O[C@@H](C)CCCCO[C@H]1CN(C)S(C)(=O)=O | inactive: 0.998 |
| C[C@H](CO)N1C[C@H](C)[C@@H](CN(C)C(=O)Nc2ccc(C(F)(F)F)cc2)Oc2ccc(NC(=O)Nc3ccc4c(c3)OCO4)cc2C1=O | inactive: 1.03 |
| CO[C@H](CN(C)C(=O)C1CCOCC1)[C@H](C)CN(C(=O)Nc1ccc(C(F)(F)F)cc1)[C@H](C)CO | inactive: 0.812 |
| C=C1C[C@@]23CC[C@@H]4[C@@](C)(CCC[C@@]4(C)C(=O)OC)[C@H]2CC[C@@H]1C3 | inactive: 0.988 |
| CS(=O)(=O)N1C[C@@H](O)COC[C@H]2O[C@H](CC(=O)NCCc3ccncc3)CC[C@@H]21 | inactive: 0.981 |
| Cn1cnc(S(=O)(=O)N[C@H]2CC[C@@H](CC(=O)Nc3ccccc3)O[C@@H]2CO)c1 | inactive: 0.97 |
| C[C@@H]1CN([C@H](C)CO)C(=O)Cc2cc(NS(C)(=O)=O)ccc2O[C@H]1CN(C)C(=O)Nc1ccc(F)cc1 | inactive: 0.989 |
| C=CCN(CCCC)C(=O)[C@H]1N(CCOCCO)C(=O)[C@H]2[C@H](C(=O)O)[C@@H]3C=C[C@@]21O3 | inactive: 1.02 |
| Cc1ccccc1S(=O)(=O)N1C[C@@H](O)COC[C@@H]2O[C@@H](CC(=O)N3CCN(C)CC3)CC[C@H]21 | inactive: 1 |
| C[C@@H]1CCCCO[C@H](CN(C)C(=O)Nc2cccc3ccccc23)[C@H](C)CN([C@H](C)CO)C(=O)c2cc(NS(=O)(=O)c3cn(C)cn3)ccc2O1 | inactive: 0.965 |
| C[C@@H]1CN([C@@H](C)CO)C(=O)c2cc(/C=C/c3ccccc3)cnc2O[C@@H]1CN(C)S(=O)(=O)c1cn(C)cn1 | inactive: 1 |
| C[C@@H]1CCCCO[C@H](CN(C)C(=O)Nc2ccc(C(F)(F)F)cc2)[C@H](C)CN([C@@H](C)CO)C(=O)c2cc(NC(=O)Nc3cccc4ccccc34)ccc2O1 | inactive: 1.02 |
| O=C(C[C@H]1CC[C@H](NC(=O)c2ccc(F)cc2)[C@H](CO)O1)NCc1ccncn1 | inactive: 1.01 |
| Cc1sc2ncnc(N3CCC[C@@H](Cn4cc(C(C)(C)N)nn4)C3)c2c1C | inactive: 0.979 |
| COc1ccc(NC(=O)Nc2ccc3c(c2)C(=O)N([C@H](C)CO)C[C@@H](C)[C@H](CN(C)C(=O)NC2CCCCC2)OCCCC[C@H](C)O3)cc1 | inactive: 1.03 |
| CC(C)NC(=O)N(C)C[C@@H]1Oc2c(NS(=O)(=O)c3ccc(F)cc3)cccc2C(=O)N([C@@H](C)CO)C[C@H]1C | inactive: 0.976 |
| O=C(C[C@H]1CC[C@@H]2[C@H](COC[C@H](O)CN2Cc2cccc(C(F)(F)F)c2)O1)NCCc1ccncc1 | inactive: 1.01 |
| CCN1CCN(C2=C(NS(=O)(=O)c3ccc(Br)cc3)C(=O)c3ccccc3C2=O)CC1 | inactive: 0.987 |
| COc1cccc(NC(=O)N[C@@H]2CC[C@H](CC(=O)N3CCN(C)CC3)O[C@@H]2CO)c1 | inactive: 1.03 |

| SMILES | relative growth |
| --- | --- |
| COc1ccc(S(=O)(=O)N(C)C[C@@H]2Oc3ccc(NS(C)(=O)=O)cc3CC(=O)N([C@H](C)CO)C[C@H]2C)cc1 | inactive: 1 |
| Cc1ccc(S(=O)(=O)N2C[C@H](O)COC[C@@H]3O[C@H](CC(=O)N[C@H]4CCN(Cc5ccccc5)C4)CC[C@H]32)cc1 | inactive: 1.02 |
| COc1ccc(NC(=O)N(C)C[C@@H]2OCCCC[C@H](C)Oc3ccc(NC(=O)Nc4ccc(F)cc4)cc3C(=O)N([C@@H](C)CO)C[C@@H]2C)cc1 | inactive: 1.05 |
| C[C@@H]1CCCCO[C@H](CN(C)CC2CCCCC2)[C@H](C)CN([C@H](C)CO)C(=O)c2cc(NS(=O)(=O)c3ccc(F)cc3)ccc2O1 | inactive: 1 |
| Cc1ccc(S(=O)(=O)Nc2ccc3c(c2)C(=O)N([C@@H](C)CO)C[C@@H](C)[C@H](CN(C)Cc2ccc(C(F)(F)F)cc2)OCCCC[C@H](C)O3)cc1 | inactive: 1.02 |
| C[C@H]1CN([C@@H](C)CO)S(=O)(=O)c2ccc(Br)cc2O[C@H]1CN(C)Cc1ccccc1F | inactive: 0.975 |
| O=c1c(O)c(-c2ccc(O)cc2)oc2ccccc12 | inactive: 0.981 |
| C[C@H]1CCCCO[C@@H](CN(C)C(=O)Nc2ccc(C(F)(F)F)cc2)[C@@H](C)CN([C@@H](C)CO)C(=O)c2cc(NC(=O)c3ccncc3)ccc2O1 | inactive: 0.96 |
| C[C@H](CO)N1C[C@H](C)[C@H](CN(C)Cc2ccc(Cl)c(Cl)c2)Oc2ccc(NC(=O)Cn3cnnn3)cc2C1=O | inactive: 0.989 |
| Cc1noc(C)c1NC(=O)N(C)C[C@@H]1OCCCC[C@H](C)Oc2ccc(NC(=O)Nc3ccc4c(c3)OCO4)cc2C(=O)N([C@@H](C)CO)C[C@H]1C | inactive: 0.997 |
| O=C(CCCCCNC(=O)OCCCCO[C@@H]1C[C@H](c2ccc(C(F)(F)F)cc2)C=C(C(=O)N2CCN(Cc3ccc4c(c3)OCO4)CC2)O1)NO | inactive: 1.03 |
| Cc1nc(N)sc1-c1ccnc(Nc2ccc(N3CCOCC3)cc2)n1 | inactive: 1.01 |
| C[C@@H]1CN([C@H](C)CO)S(=O)(=O)c2ccc(Br)cc2O[C@H]1CN(C)C(=O)c1cnccn1 | inactive: 1.01 |
| C[C@H](CO)N1C[C@H](C)[C@@H](CN(C)C(=O)c2cccc(F)c2)Oc2cc(C#CC3CC3)ccc2S1(=O)=O | inactive: 1.03 |
| CN1CCN(C(=O)C[C@@H]2C=C[C@H](NC(=O)c3ccc4c(c3)OCO4)[C@@H](CO)O2)CC1 | inactive: 0.983 |
| CCCN(C)C[C@H]1OCCCC[C@H](C)Oc2ccc(NC(=O)Nc3ccc4c(c3)OCO4)cc2C(=O)N([C@@H](C)CO)C[C@@H]1C | inactive: 0.977 |
| C[C@@H]1CN([C@H](C)CO)S(=O)(=O)c2ccc(C#C[C@@H](C)O)cc2O[C@@H]1CN(C)C(=O)Nc1ccccc1 | inactive: 0.999 |
| CO[C@H]1CN(C)C(=O)c2ccc(NC(=O)C3CC3)cc2OC[C@@H](C)N(C(=O)Cc2ccccn2)C[C@@H]1C | inactive: 1.02 |
| CN(C)CCCNC(=O)C[C@@H]1C=C[C@@H](NC(=O)Cc2cccnc2)[C@H](CO)O1 | inactive: 0.984 |
| C[C@@H]1CN([C@@H](C)CO)C(=O)c2ccccc2-c2ccccc2CO[C@@H]1CN(C)Cc1ccc(C(F)(F)F)cc1 | inactive: 0.932 |
| CC(C)NC(=O)N(C)C[C@H]1Oc2ccc(NS(=O)(=O)c3cccs3)cc2C(=O)N([C@@H](C)CO)C[C@H]1C | inactive: 0.968 |

| SMILES | relative growth |
| --- | --- |
| C[C@H]1CN([C@@H](C)CO)C(=O)c2c(c3ccccc3n2C)-c2ccccc2CO[C@H]1CN(C)Cc1cccc(C(F)(F)F)c1 | inactive: 1.02 |
| Cc1noc(C)c1S(=O)(=O)Nc1ccc2c(c1)C(=O)N([C@@H](C)CO)C[C@@H](C)[C@H](CN(C)C(=O)Nc1ccc(F)cc1)OCCCC[C@@H](C)O2 | inactive: 0.997 |
| CCCCNc1cc(C(=O)O)cc(S(N)(=O)=O)c1Oc1ccccc1 | inactive: 1.03 |
| O=C(NO)c1cn(-c2ccc(C[C@H]3C(=O)O[C@@H](Cc4ccccc4)[C@H]4[C@@H]5C=CCCC=C5CN43)cc2)nn1 | inactive: 0.984 |
| COc1ccc(C[C@H](NC(=O)[C@H](C)NC(=O)CN2CCOCC2)C(=O)N[C@@H](Cc2ccccc2)C(=O)[C@@]2(C)CO2)cc1 | inactive: 1.03 |
| CC(CN1CC(=O)NC(=O)C1)N1CC(=O)NC(=O)C1 (stereo unspecified) | inactive: 1.08 |
| C[C@H]1CN([C@@H](C)CO)C(=O)c2cc(C#Cc3ccncc3)cnc2O[C@@H]1CN(C)S(=O)(=O)c1ccccc1F | inactive: 1.01 |
| CN(C)CC(=O)N[C@@H]1CC[C@H](CCNC(=O)C2CC2)O[C@@H]1CO | inactive: 1.01 |
| COc1ccc(C#Cc2ccc3c(c2)O[C@H](CN(C)S(=O)(=O)c2ccccc2F)[C@H](C)CN([C@@H](C)CO)S3(=O)=O)cc1 | inactive: 1.06 |
| C[C@@H]1CN([C@@H](C)CO)C(=O)Cc2cc(NC(=O)Cc3ccccc3)ccc2O[C@@H]1CN(C)Cc1ccc(Oc2ccccc2)cc1 | inactive: 0.987 |
| C[C@@H]1CN([C@@H](C)CO)C(=O)Cc2cc(NS(=O)(=O)c3cn(C)cn3)ccc2O[C@H]1CN(C)S(=O)(=O)c1ccc(F)cc1 | inactive: 0.971 |
| C/C=C/c1ccc2c(c1)O[C@@H](CN(C)S(=O)(=O)c1ccc(F)cc1)[C@@H](C)CN([C@@H](C)CO)S2(=O)=O | inactive: 0.995 |
| Cc1cc2cc(CN)ccc2[nH]1 | inactive: 1.03 |
| CCS(=O)(=O)NCC[C@H]1CC[C@@H](NS(=O)(=O)c2ccccc2C)[C@@H](CO)O1 | inactive: 1.03 |
| O=C(C[C@@H]1CC[C@H]2[C@@H](COC[C@H](O)CN2C(=O)c2ccccc2)O1)N1CCOCC1 | inactive: 1 |
| CC(C)(C)c1ccc(C(=O)CCCN2CCC(OC(c3ccccc3)c3ccccc3)CC2)cc1 | inactive: 0.904 |
| COc1ccc(S(=O)(=O)Nc2ccc3c(c2)CC(=O)N([C@H](C)CO)C[C@@H](C)[C@H](CN(C)S(=O)(=O)c2ccc(OC)cc2)O3)cc1 | inactive: 0.983 |
| NCc1ccc2c(c1)CCO2 | inactive: 1.01 |
| CN(C)CC(=O)N[C@@H]1CC[C@@H](CC(=O)NCCN2CCCCC2)O[C@@H]1CO | inactive: 1.01 |
